# Assay results: PubChem BioAssay AID1963576 (National Center for Advancing Translational Sciences (NCATS), 2024)
# The campaign covered roughly 46,000 compounds. About 60 (0.1%) were called active. Not shown: some 3% with an inconclusive outcome. Calls follow the shape of the dose curve; as a rule, active = well fitted inhibition curve with a large enough effect; inconclusive = small, poorly fitted or top-dose-only effect; inactive = no such curve, though single readings can be large or run the other way. This is one part of the list.
# Test: Primary qHTS assay for Inhibitors of ovarian cancer metastasis using an organotypic tumor microenvironment (TME) model. Also: nearly all actives have a fitted effect of over 65% in size.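 As to activity change, negative = inhibition: plate controls were DMSO wells for no effect and tomatine positive control wells for full effect.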
# Settings: SKOV3ip1-GFP adhesion/invasion on 3D omental model, fluorescence; series mostly up to 45.8 µM; activity change, negative = inhibition: at the top concentration
# Method in brief: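 qHTS, 4-pt dose (0.36-46 umol/L); SKOV3ip1-GFP, 1,200 cells/well, no FBS; primary omental fibroblast/mesothelial co-culture 48 h pre-grown; 2 h RT + 16 h 37 C; PBS wash, 4% PFA; GFP count 488/509 nm.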
SMILES,"activity change, negative = inhibition",outcome
COc1cccc(CNC(=O)Nc2cc(C(=O)NCc3cccc(F)c3)ccc2N2CCCC2)c1,inactive: 0.49%,
CCC(Oc1ccc(F)cc1)C(=O)Nc1cc(-c2ccc(C)cc2)no1 (configuration not stated),inactive: 0.219%,
CCNC(=O)CCSc1nnc(-c2ccc(O)cc2)o1,,inactive
CCOc1ccc(NC(=O)CC2C(=O)N(c3cccc(OC)c3)C(=O)N2C2CCCCC2)cc1 (configuration not stated),inactive: 1.25%,
Cn1c(=O)c2ccccc2n2c(CCC(=O)N3CCN(c4cccc(Cl)c4)CC3)nnc12,inactive: 19.8%,
CCN(CC)c1ccc(NC(=O)c2cc(CN3CCCC3)on2)c(C)c1,inactive: 12.2%,
CCOc1cc(CNC(=O)c2ccc(NC(=O)c3nsc4ccccc34)cc2)ccc1OC,,inactive
Cc1ccc(C(=O)NCC(=O)OCc2cc(=O)n3nc(C4CCCCC4)sc3n2)cc1,inactive: 3.28%,
CCOc1ccc(NC(=O)Cn2nnc(C(=O)OC)c2C(=O)OC)cc1,inactive: 0.919%,
COc1ccc(Cn2c(SCC(=O)NCc3ccccc3)nc3ccccc32)cc1,inactive: -7.25%,
CCCCn1c(Oc2cccc(C(=O)OC)c2)nc2c1c(=O)n(C)c(=O)n2C,inactive: -2.15%,
CCN1CCN(c2csc3ccc(Cl)cc3c2=O)CC1,inactive: 1.35%,
Cc1cccc(NC(=O)CSc2nc(-c3cccs3)cc(C(F)(F)F)c2C#N)c1,inactive: -6.82%,
COc1ccc(Cl)cc1NC(=O)C(C)n1nnc2sc3c(c2c1=O)CCCC3 (configuration not stated),inactive: 6.21%,
COc1ccccc1C(=O)Nc1cc(-c2cccc(Br)c2)nn1-c1ccccc1,inactive: -0.432%,
Cc1cc(C)cc(N2C(=O)CC(c3ccc(C(F)(F)F)cc3)C3=C2COC3=O)c1 (configuration not stated),inactive: 6.46%,
COc1ccc2c(C)c(CC(=O)NCCc3ccccc3)c(=O)oc2c1OC,inactive: 3.29%,
O=c1oc2ccc3ccccc3c2cc1-c1nnc(Nc2ccccc2)s1,inactive: 9.12%,
CCc1cccc(NC(=O)Cn2nc(CC)n3c(cc4cc(C)ccc43)c2=O)c1,inactive: 2.46%,
Cc1ccc2c(c1)C(c1ccc(F)cc1)N(C(=O)C(C)C)CC(=O)N2 (configuration not stated),inactive: -44.9%,
COc1ccc(C(=O)NC2(C(F)(F)F)C(=O)NC(C)=C2C#N)cc1 (configuration not stated),inactive: -12.2%,
CCC(=O)Nc1cc(C(=O)NCc2ccc(C)cc2)ccc1S(=O)(=O)c1ccc(C)cc1,,inactive
COc1cc(NC(=O)c2nc3cc(C)c(C)cc3n(C)c2=O)cc(OC)c1OC,inactive: 41.5%,
Cc1ccc(CCNC(=O)c2sc3ncccc3c2-n2cccc2)cc1,inactive: -8.87%,
COc1ccc(N2CCN(S(=O)(=O)c3ccc(-c4cc(C(F)(F)F)on4)s3)CC2)cc1,,inactive

SMILES,"activity change, negative = inhibition",outcome
COc1cccc(NC(=O)CSc2nc(O)c(C/C=C/c3ccccc3)c(=O)[nH]2)c1,inactive: 2.35%,
Cc1cc(S(=O)(=O)Nc2cccc(-c3ccc(N4CCOCC4)nn3)c2)c(C)cc1Cl,inactive: 17.1%,
CCc1cccc(C)c1Nc1c(-c2ccc(N(C)C)cc2)nc2ncccn12,,inactive
Cc1cc(C)c2oc(C(=O)Nc3c(C(=O)c4ccc(F)cc4)oc4ccccc34)cc(=O)c2c1,,inactive
Cc1ccc(C)c(CN2C(=O)c3ccccc3Sc3ccc(C(=O)NCc4ccco4)cc32)c1,inactive: -1.6%,
Cc1cccc(OCc2ccc(-c3nc(C#N)c(N4CCN(c5ccccc5)CC4)o3)o2)c1,inactive: 5.68%,
COC(=O)c1c(-c2cccs2)csc1NC(=O)c1cc(OC)cc(OC)c1,inactive: 8.94%,
Cc1cc(Cl)ccc1NC(=O)CCS(=O)(=O)c1cc2c(cc1C)NC(=O)CO2,inactive: -11.1%,
CCN(CC)c1ccc(NC(=O)Cn2c(C)c3cnn(-c4ccccc4)c(=O)c3c2C)c(C)c1,,inactive
Cc1cc(C)cc(NC(=O)C(Cc2ccccc2)N2Cc3ccccc3C2=O)c1 (configuration not stated),inactive: -11.2%,
COc1cc(C(C)=O)ccc1OCCCN1CCC(c2noc3cc(F)ccc23)CC1,inactive: 11.3%,
Clc1cccc(-n2ncc3c(NCCCc4ccccc4)ncnc32)c1,inactive: -17.6%,
Cc1ccc(CNC(=O)C(CC(C)C)N2Cc3ccccc3C2=O)cc1 (configuration not stated),inactive: -1.79%,
O=C(NCCSc1c(-c2ccc(Br)cc2)[nH]c2ccccc12)c1ccc(S(=O)(=O)N2CCOCC2)cc1,inactive: 13.9%,
Cc1nnsc1C(=O)Oc1ccccc1Cl,inactive: 8.64%,
Cc1cccc(-c2cc(NC(=O)COc3ccccc3F)n(-c3ccccc3)n2)c1,,inactive
O=C1C(c2ccc(C(F)(F)F)cc2)=C(Nc2ccc(Cl)cc2)c2ccccc21,inactive: -19.6%,
Cc1onc(-c2ccccc2)c1C(=O)N[C@@H]1C(=O)N2[C@@H](C(=O)O)C(C)(C)S[C@@H]12,inactive: -17.4%,
Cc1ccccc1C(=O)Nc1nnc(S(=O)(=O)N2CCCc3ccccc32)s1,inactive: -2.52%,
CCN(C(=O)Cn1nc(Cc2cccnc2)c2ccccc2c1=O)c1cc(C)ccc1C,,inactive
COc1ccc(C(=O)N2CCC(C(=O)Nc3ccc(OC)cc3OC)CC2)cc1,inactive: 0.0841%,
Cc1ccc(-n2c(=O)c3sccc3n(Cc3cc(=O)n4ccccc4n3)c2=O)cc1,inactive: 5.03%,
CCN(CC)CCOC(=O)c1ccc(NC(=O)CCn2c(=O)oc3ccccc32)cc1,,inactive
COc1ccc(C(=O)N=c2sc3cc(Cl)ccc3n2C)cc1,inactive: 1.18%,
CCn1c(C(=O)Nc2cc(C)cc(C)c2)cc2sc(Cl)cc21,inactive: -6.66%,

SMILES,"activity change, negative = inhibition",outcome
Cc1ccc(NC(=O)CSc2nnc(-c3cc4occc4n3C)n2-c2ccccc2C)cc1F,inactive: -3.22%,
CSc1ccccc1NC(=O)CCS(=O)(=O)c1nc(-c2cccs2)cc(C(F)(F)F)n1,inactive: -4.28%,
Cc1ccc(-c2cn3c4c(=O)n(C)c(=O)n(C)c4nc3n2-c2cccc(Cl)c2)cc1,inactive: 6.76%,
CCCCN(C)c1ncnc2c1cnn2-c1cccc(Cl)c1,inactive: 3.57%,
N#Cc1ccccc1NC(=O)C(=O)NCC(c1cccnc1)N1CCc2ccccc2C1 (configuration not stated),inactive: 7.34%,
CCc1ccc(S(=O)(=O)c2nnn3c2nc(Nc2cccc(C)c2C)c2sccc23)cc1,inactive: 1.62%,
COc1cc(-c2nnc(SCC(=O)N3CCCc4ccccc43)o2)cc(OC)c1OC,inactive: -5.46%,
COc1ccc(N(CC(=O)Nc2ccc(Cl)cc2C)S(=O)(=O)c2ccccc2)c(OC)c1,inactive: 12.9%,
O=C(NCc1ccccc1Br)c1ccc(-n2cnc3cccnc32)cc1,inactive: -2.78%,
CCOc1ccccc1NC(=O)C1CCCN(S(=O)(=O)c2ccc3c(c2)CCCN3C(C)=O)C1 (configuration not stated),inactive: 2.94%,
COc1ccc(OC)c(CCNC(=O)C(C)n2nc(C)c3c(C)n(-c4ccc(C)cc4)nc3c2=O)c1 (configuration not stated),,inactive
COc1cccc(CNc2ccc3c(c2)ncn3C)c1OC,inactive: 5.02%,
Cc1cc(SCC(=O)NCc2ccccc2)nc(=O)[nH]1,,inactive
CCC(=O)N1CCc2cc(S(=O)(=O)NCCC(=O)Nc3cccc(C)c3C)ccc21,inactive: 1.7%,
Cc1cc(C)cc(C(=O)Nc2c3c(nn2-c2ccccc2C)CS(=O)(=O)C3)c1,inactive: 11.6%,
CCOC(=O)c1c(-c2ccccc2)csc1NC(=O)c1cc(-c2cccc(OC)c2)on1,inactive: -3.69%,
Cc1ccc(Cl)cc1N1CCN(C(=O)Cn2nc(C)n3c(cc4sccc43)c2=O)CC1,inactive: -5.7%,
CCCN(C(=O)CCn1cnc2onc(-c3ccc(F)cc3)c2c1=O)c1ccccc1C,inactive: -6.91%,
CCC(=O)N1c2nc(C(C)C)nn2C2(CCCCC2)[C@@H]2CCCC[C@@H]21,,inactive
O=C(CN1C(=O)COc2ccc(S(=O)(=O)N3CCCCCC3)cc21)N1CCN(c2ccccc2)CC1,inactive: 2.77%,
Cc1cc(C)cc(NC(=O)Cn2nnc(C(=O)NCc3ccco3)c2N)c1,inactive: 16.3%,
Cc1ccc(C(=O)Nc2nnc(SCc3cc(=O)n4ccc(C)cc4n3)s2)cc1,,inactive
O=C(Cn1nc2c(cc1=O)CCCC2)NCc1ccccc1Cl,,inactive
O=C(NNc1ncnc2c1cnn2-c1ccccc1)c1ccccc1,inactive: 7.93%,
O=C(Cn1c(SCc2cccc(F)c2)nc2ccncc21)Nc1ccc(Cl)cc1F,,inactive

SMILES,"activity change, negative = inhibition",outcome
CCOc1cc(CNC(=O)C(NS(=O)(=O)c2cccs2)C(C)C)cc(OCC)c1OCC (configuration not stated),inactive: 13.8%,
COc1ccc(NCc2cccn2-c2nnc(N3CCOCC3)s2)c(OC)c1,inactive: -12.3%,
COc1ccc(NC(=O)CN2CCN(S(=O)(=O)c3ccc(Br)cc3)CC2)cc1,inactive: 2.61%,
COc1ccc(Cl)cc1NC(=O)C(C)N1Cc2ccccc2C1=O (configuration not stated),inactive: -2.85%,
COCCNC(=O)Cn1c(=O)n(-c2ccc(C)c(C)c2)c(=O)c2c3c(sc21)CCCCC3,inactive: 5.23%,
Cc1ccc(C(CC(=O)Nc2ccc(C)cc2C)N2Cc3ccccc3C2=O)cc1 (configuration not stated),,inactive
CCOC(=O)c1c(NC(C)=O)c2c3c(sc2n1Cc1cccc(Cl)c1)CCCC3,,inactive
CN[C@@H]1C[C@H]2O[C@@](C)([C@H]1OC)n1c3ccccc3c3c4c(c5c6ccccc6n2c5c31)C(=O)N[C@H]4O,inactive: -19.2%,
CCOc1ccccc1CNC(=O)c1cccc(NC(=O)c2nsc3ccccc23)c1,inactive: 4.88%,
CCCc1oc2ccc(NS(=O)(=O)c3ccc(OC)cc3)cc2c1C(=O)OCC,inactive: -26.9%,
COc1ccc(C(=O)Nc2ccc3nc(N4CCCCC4)cc(C)c3c2)c(OC)c1,inactive: -4.82%,
Cc1cn2c(=O)cc(COc3cccc(NC(=O)c4cccc(F)c4)c3)nc2s1,inactive: -0.308%,
COc1ccc(C(CC(=O)O)NC(=O)c2cc3ccccc3oc2=O)cc1OC (configuration not stated),inactive: 31%,
CCN(CC)C(=O)Cn1cc(SCC(=O)Nc2cccc(F)c2)c2ccccc21,inactive: 4.68%,
Cc1ccc(S(=O)(=O)c2cnc(SCC(=O)Nc3cccc(Cl)c3)nc2N)cc1C,inactive: -20.2%,
O=C(Nc1cccc2cccnc12)c1ccccc1[N+](=O)[O-],,inactive
CCOCCCNC(=O)CN1C(=O)COc2ccc(S(=O)(=O)N3CCCCCC3)cc21,,inactive
CCOC(=O)c1cnc2c(C)cc(C)cc2c1Nc1cccc(C(=O)O)c1,,inactive
Cc1cccc(Cn2c(=O)n(Cc3ccc(C(=O)NC4CCN(Cc5ccccc5)CC4)cc3)c(=O)c3ccccc32)c1,,inactive
Oc1ccc(Nc2nc3ccccc3n3cnnc23)cc1,inactive: -6.26%,
CCc1cccc(C)c1NC(=O)CCCn1c(=O)c2cccn2c2cccnc21,inactive: -3.97%,
Cc1ccc(-n2ncc(C(=O)NCCCN3CCCCC3)c2C2CCN(C(=O)OC(C)(C)C)CC2)c(C)c1,inactive: -16%,
